Measurements from the supplement of paper PMC10441789.
The list shows a part of the results. Antibody binding of pooled human sera (four to six donors per pool; dilution not stated) to peptides of the Trypanosoma cruzi antigen TSSA on microarrays. Quantile-normalised fluorescence in arbitrary units, mean of duplicate arrays; higher = more binding. No active / inactive call. The uninfected pools are read here as the healthy donors of the same country. The strongest signals lie near the top of the scale (about 60,000).

Experiments:
Assay in all cases: antibody binding signal (normalised fluorescence) (arbitrary fluorescence units); higher = stronger serum antibody binding to peptide
[1] = tested on: pooled sera of chronic Chagas disease patients, Bolivia
Description: (§1)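 Microarray of 15-residue peptides over residues 30-55 of Trypanosoma cruzi TSSAII, each with 1 to 10 substitutions at naturally variable positions, probed with one serum pool per country.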

[2] = tested on: pooled sera of chronic Chagas disease patients, Brazil
Description: as §1

[3] = tested on: pooled sera of chronic Chagas disease patients, Colombia
Description: as §1

[4] = tested on: pooled sera of chronic Chagas disease patients, Mexico
Description: as §1

[5] = tested on: pooled sera of chronic Chagas disease patients, USA
Description: as §1

[6] = tested on: pooled sera of uninfected people, Argentina
Description: as §1

[7] = tested on: pooled sera of uninfected people, Bolivia
Description: as §1

[8] = tested on: pooled sera of uninfected people, Brazil
Description: as §1

[9] = tested on: pooled sera of uninfected people, Colombia
Description: as §1

[10] = tested on: pooled sera of uninfected people, Mexico
Description: as §1

[11] = tested on: pooled sera of uninfected people, USA
Description: as §1

| Sequence | antibody binding signal [1] | antibody binding signal [2] | antibody binding signal [3] | antibody binding signal [4] | antibody binding signal [5] | antibody binding signal [6] | antibody binding signal [7] | antibody binding signal [8] | antibody binding signal [9] | antibody binding signal [10] | antibody binding signal [11] |
| --- | --- | --- | --- | --- | --- | --- | --- | --- | --- | --- | --- |
| PSGKENKAATGEAPS | 21500 | 34900 | 5090 | 6910 | 32000 | 7320 | 3690 | 267 | 841 | 469 | 275 |
| TDNKAATGETPSPPG | 5240 | 21100 | 137 | 148 | 12400 | 108 | 357 | 237 | 143 | 169 | 1970 |
| GTEKKTAAGETPSPS | 241 | 356 | 557 | 686 | 3560 | 140 | 587 | 148 | 623 | 326 | 1830 |
| ISTPPSGKDKKTATG | 628 | 1210 | 282 | 38700 | 502 | 153 | 276 | 99.6 | 106 | 112 | 95.7 |
| GKEKKTAAGGAPSQS | 241 | 211 | 4710 | 1180 | 1160 | 123 | 108 | 119 | 128 | 96.7 | 141 |
| SGKEKKTAAGGAPSQ | 267 | 1860 | 6370 | 5450 | 4790 | 153 | 94.1 | 114 | 115 | 139 | 111 |
| EKKPATGGAPSQSGA | 562 | 1410 | 1520 | 1440 | 1680 | 572 | 1440 | 230 | 241 | 193 | 871 |
| GTDKKTAAGGTPSPP | 193 | 180 | 9150 | 411 | 2040 | 122 | 160 | 600 | 293 | 235 | 119 |
| GKDNKPATGGTPSPS | 382 | 936 | 1230 | 1920 | 2090 | 292 | 696 | 172 | 245 | 129 | 106 |
| PSGKDKKPAAGGTPS | 1930 | 4330 | 6930 | 7420 | 6270 | 149 | 388 | 394 | 124 | 141 | 115 |
| SGKENKAAAGEAPSP | 3650 | 25400 | 6570 | 5010 | 19200 | 9050 | 3620 | 103 | 456 | 409 | 168 |
| KTAAGEAPSQPGASS | 11500 | 39300 | 173 | 814 | 4380 | 185 | 314 | 233 | 130 | 134 | 163 |
| TSSTPPSGKENKTAA | 3760 | 11400 | 1570 | 5220 | 3340 | 3930 | 961 | 170 | 639 | 356 | 484 |
